From PubChem BioAssay AID488969 (Vanderbilt High Throughput Screening Facility, 2010)
Whole data set: some 110,000 compounds, median “z-score” near -0.1, cut for the highest 2% near 2. The list shows a part of the results. Active and inactive are the calls of the source.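 How the source made its calls: active means z-score in the third read window above 3 or below -3; inactive means the rest.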

These molecules were tested against Metabotropic glutamate receptor 8 (Rattus norvegicus) (UniProt P70579) (assay: rat mGluR8 modulators via GIRK flux, primary screen, cell-based, thallium flux, HTS (AID 488969)). Conditions: HEK293 rat mGluR8, GIRK (G protein-gated inwardly rectifying potassium channel) thallium flux, FluoZin2; at 10 µM; stronger effect = higher value; submaximal glutamate (EC20) added with thallium.
Sequence of UniProt P70579 (P70579 whole entry, looked up): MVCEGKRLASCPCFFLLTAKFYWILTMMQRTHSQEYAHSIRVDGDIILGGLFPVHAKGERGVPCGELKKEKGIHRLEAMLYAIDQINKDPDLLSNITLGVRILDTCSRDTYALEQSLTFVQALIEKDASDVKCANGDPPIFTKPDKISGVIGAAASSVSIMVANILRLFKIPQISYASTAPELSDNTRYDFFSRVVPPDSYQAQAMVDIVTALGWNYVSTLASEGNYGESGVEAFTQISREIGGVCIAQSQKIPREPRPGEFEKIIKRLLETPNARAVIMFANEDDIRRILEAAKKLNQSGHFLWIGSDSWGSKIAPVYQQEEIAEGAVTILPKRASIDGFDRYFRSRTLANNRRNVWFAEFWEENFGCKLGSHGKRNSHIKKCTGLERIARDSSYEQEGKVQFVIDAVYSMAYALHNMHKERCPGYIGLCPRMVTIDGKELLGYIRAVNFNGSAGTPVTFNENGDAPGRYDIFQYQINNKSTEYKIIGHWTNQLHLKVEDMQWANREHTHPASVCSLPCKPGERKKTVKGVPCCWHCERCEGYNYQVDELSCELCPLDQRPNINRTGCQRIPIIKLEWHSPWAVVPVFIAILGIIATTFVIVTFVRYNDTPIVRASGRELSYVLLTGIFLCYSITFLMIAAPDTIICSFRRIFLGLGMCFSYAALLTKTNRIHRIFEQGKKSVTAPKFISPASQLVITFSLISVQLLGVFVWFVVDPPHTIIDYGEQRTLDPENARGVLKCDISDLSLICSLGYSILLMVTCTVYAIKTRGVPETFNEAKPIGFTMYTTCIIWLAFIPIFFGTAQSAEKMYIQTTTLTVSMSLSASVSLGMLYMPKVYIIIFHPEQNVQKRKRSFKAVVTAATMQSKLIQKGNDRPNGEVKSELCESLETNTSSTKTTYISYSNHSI

Structure (SMILES)	z-score
CCOc1ccc(N=Nc2c(=O)[nH]n3c(C)cc(C)nc23)cc1	-0.16
CCCn1nnc2sc3c(c2c1=O)CCC(C)C3 (centres undefined)	-0.485
Cc1nn(Cc2c(F)c(F)c(F)c(F)c2F)c(C)c1NC(=O)c1c(-c2ccccc2)nn(-c2ccccc2)c1C	-0.01
CCOC(=O)N1CCN(C(=O)CN(C)S(=O)(=O)c2ccc(OC)c(OC)c2)CC1	-0.186
O=C(NCCc1ccncc1)Nc1cccc(Cl)c1	0.145
Cc1ccc2oc(-c3ccc(C)c(NC(=O)Cc4cccs4)c3)nc2c1	0.0074
CC(=C/c1ccccc1)/C=N/n1cnnc1	-0.0158
CCc1nnc(NC(=O)C2CC(=O)N(CCc3ccccc3)C2)s1 (centres undefined)	0.309
Cc1cccc(OC(=O)C2C(c3ccccc3)C(C(=O)O)C2c2ccccc2)c1 (centres undefined)	-0.501
CC(C)OC(=O)CCC1(C(=O)O)CCC(=O)NC1 (centres undefined)	-0.298
COc1cc(CC(=O)OC2CCOC2=O)cc(OC)c1OC (centres undefined)	-0.158
COCCNC(=O)C1CC(=O)N(CCc2ccccc2)C1 (centres undefined)	-1.34
COc1cc(C(=O)N2CCCC(c3nc(-c4cccs4)no3)C2)cc(OC)c1OC (centres undefined)	-0.12
COCCNC(=O)C(C)Oc1ccc(Cl)cc1Cl (centres undefined)	0.227
C/C=C/C=[N+](\[O-])C(C)/C(=N/O)c1ccc(F)cc1 (centres undefined)	-0.52
COc1ccc(OC)c(NC(=O)CSc2nnc(CCCO)n2-c2ccccc2)c1	-0.00479
O=C1CCC(C(=O)NC2(C(=O)NC3CCCCC3)CCCCC2)N1 (centres undefined)	-0.0874
CCOC(=O)c1oc2c(c1C)C(=O)CCC2	-0.0495
O=C(N/N=C\C=C\c1ccc2c(c1)OCO2)C1COc2cc3ccccc3cc2O1 (centres undefined)	-0.307
Cc1cc(C)n2nc(C(=O)Nc3ccc4c(c3)OCO4)nc2n1	-0.107
O=C(Nc1cccc(S(=O)(=O)NCc2ccco2)c1)c1cc(-c2ccccc2)nc2ccccc12	0.0964
CCCc1cc(=O)[nH]c(SCc2nc3ccc([N+](=O)[O-])cc3[nH]2)n1	-0.388
COC(=O)c1scc(C)c1NC(=O)C1CCCCC1	-0.231

Structure (SMILES)	z-score
Cc1ccsc1C(=O)NCCC(c1ccccc1)c1ccccc1	-0.265
COc1ccc(S(=O)(=O)NCCc2csc(-c3cccnc3)n2)cc1	-0.0463
O=C(O)CCCCCCCCCC(=O)c1cccs1	0.13
c1ccc(-n2ncc3c(N4CCN(CCOc5cccc6ccccc56)CC4)ncnc32)cc1	-0.133
Cc1ccsc1C1Nc2ccc3ncccc3c2C2=C1C(=O)CC(C)(C)C2 (centres undefined)	-0.697
Cc1ccc(NC2=NC3(CCCCC3)N=C(N)N2)c(C)c1	0.379
Cc1csc(NC(=O)C2CCCCC2C(=O)O)n1 (centres undefined)	-0.149
Cc1ccn2c(Nc3ccc4c(c3)OCO4)c(-c3ccccn3)nc2c1	-0.456
CCOC(=O)CSc1nc2sc(C)c(C)c2c(=O)n1C	-1.17
COCCCN(C)C1CCN(C(=O)Nc2ccc(F)cc2)CC1	0.711
COc1ccc(Cl)cc1N(C)C(=O)CCNC(=O)Cn1cnc2ccccc2c1=O	0.258
Oc1ccc2ccccc2c1/C=N/c1nc2c(s1)CCCC2	0.0773
Cc1cc(NC(=O)CSc2nc(-c3ccc(F)cc3)cs2)no1	0.222
COc1cccc(C2C(C#N)=C(C)NC3=C2C(=O)CC(C)(C)C3)c1 (centres undefined)	-0.45
O=C(NNC1CC(=O)N(c2cccc(Cl)c2)C1=O)c1cccs1 (centres undefined)	0.00448
CCn1c(SCC(=O)N2CCCC2)nnc1-c1ccc(N)cc1	0.183
CCn1c2ccccc2c2cc(NC(=O)COc3ccc(OC)cc3)ccc21	-0.0603
Cc1ccc2c(c1)NC(=O)CC(c1ccccc1)=N2	active: 8.23
Cc1ccc(SCc2ccc(C(=O)Nc3cccc([N+](=O)[O-])c3)cc2)cc1	-0.0473
COc1ccc(OC2OC3COC(C)(C)OC3C(O)C2NC(C)=O)cc1 (centres undefined)	-0.217
CCn1cc(C(=O)N2CCc3ccccc32)c(=O)c2cc(S(=O)(=O)N3CCOCC3)ccc21	-0.699
CCOC(=O)c1c(NC(=O)c2cccs2)sc(C)c1C	0.154
O=C(N1CCCC1)C12CC3CC(CC(C3)C1)C2	-0.391

Structure (SMILES)	z-score
CCCCC(=O)Nc1nn(CCC)c2nc3ccccc3cc12	-1.22
O=C(CCC1N=C2c3ccccc3N=C(SCc3ccc(F)cc3)N2C1=O)NCc1ccco1 (centres undefined)	-0.0995
COc1ccc([N+](=O)[O-])cc1NC(=O)Cc1ccc(Cl)cc1	-0.271
Cc1ccc(SCC(=O)Nc2cccc(-c3nnc(-c4ccco4)o3)c2)cc1	-0.215
Cc1nn(C(=O)c2ccco2)c(C)c1Sc1ccccc1	-0.328
COc1ccc(Cl)cc1C(=O)NCC#N	-0.266
COc1cc(CNCC(C)C)c(Br)cc1OCC(=O)NCc1ccccc1	0.232
COCCn1c(Sc2ccccc2)nc2c1c(=O)[nH]c(=O)n2C	-1.07
Cn1c(=O)n(CCCOc2ccc(Br)cc2)c2ccccc21	0.384
COc1ccc(Oc2ccccc2/C=C/C(=O)O)cc1	0.219
COc1ccc(C(=O)CN2CC(C)SC2=Nc2ccc(Cl)cc2)cc1 (centres undefined)	-0.183
COc1ccccc1OCc1ccc(C(=O)n2nc(C)c(Cl)c2C)o1	-0.181
CN1C(=O)NC(c2ccccc2)C2=C1CN(c1ccc3ccccc3c1)C2=O (centres undefined)	-0.18
C#CCOC(=O)c1csc2nnsc12	-0.103
Cc1cccc(NC(=S)N(CCN(C)C)C(C)c2ccccn2)c1 (centres undefined)	0.0557
COc1ccc(Cl)cc1NC(=O)N1CCN(S(C)(=O)=O)CC1	0.29
CCN(CC)c1ccc(NC(=O)COC(=O)CCC(=O)c2ccc(F)cc2)cc1	-0.0202
COc1ccc(OCCCn2c(=O)oc3ccccc32)cc1	0.326
Cc1cccc(NC(=O)/C(=C\c2ccco2)NC(=O)c2cccs2)c1	-0.204
Cc1ccccc1Nc1nc(N)nc(CSc2nnc(-c3ccccc3)n2C)n1	0.307
CCN(CC)S(=O)(=O)c1cccc(C(=O)NC(Cc2c[nH]c3ccccc23)c2nnc3n2CCC3)c1 (centres undefined)	-0.455
O=C(NCCN1CCOCC1)c1ccc(CS(=O)(=O)Cc2ccccc2F)o1	-0.141
O=C(COC(=O)c1ccccn1)Nc1cccc(Cl)c1Cl	0.0326

Structure (SMILES)	z-score
CC(C)(C)c1ccc(/C=C/C(=O)N2CCN(c3ncccn3)CC2)cc1	-0.394
O=c1c2cnn(-c3ccccc3)c2nnn1Cc1ccccn1	-0.283
C=CCn1c(C)c(C(C)=O)c(N2CCCC2)nc1=S	0.317
CCn1c(C(c2ccccc2)c2ccccc2)n[nH]c1=S	-0.484
CCCCCSc1nncc(=O)[nH]1	-0.281
Cc1ccc(S(=O)(=O)N2CCN(C(=O)CSc3nc4ccccc4c(=O)[nH]3)CC2)c(C)c1	-0.321
CC1(O)C(=O)c2ccccc2N(c2ccccc2)C1=O (centres undefined)	-0.0727
Cn1c(=N)n(CC(=O)c2cccs2)c2ccccc21	-0.0567
CN1C(=O)C(C(=O)NC(C)(C)C)C2c3ccccc3OC13CCCCC23 (centres undefined)	0.209
O=S(=O)(NCCc1ccncc1)c1ccc(Br)cc1	-0.0433
CCc1ccc2nc(SCC(=O)N3CC(=O)Nc4ccccc43)c(C#N)cc2c1	1.16
COc1ccc(C(=O)c2ccc(OC)c3cccc(O)c23)cc1OC	-0.286
CCOc1ccc(C2N(c3cc(C)on3)C(=O)C3CCCN32)cc1OC (centres undefined)	-0.404
CCOC(=O)c1cnn(-c2cc(C)nc3c(-c4ccc(Cl)cc4)c(C)nn23)c1N	-0.0786
CC(C)c1nccn1CCC(=O)O	0.262
Cc1ccc(N(CC(=O)NCc2ccccc2Cl)S(=O)(=O)c2cccs2)cc1	-0.232
Cc1nnc(SCc2ccccc2C#N)n1-c1ccccc1	1.19
Cc1ccc(-c2noc(C3CCN(C(=O)Nc4ccc(C#N)cc4)CC3)n2)o1	-0.0373
COc1ccc(NC(=O)c2ccccc2NC(=O)CSc2ccccc2)cc1	-0.249
N#CC1=C2SCC(O)(c3ccccc3)N2C(=O)CC1c1cccs1 (centres undefined)	-0.336
CC(=O)Nc1cccc(OCC(=O)NC(C)C(C)C)c1 (centres undefined)	0.366
COC(=O)CSC(C(=O)Nc1ccc(C)c(C)c1)c1ccccc1 (centres undefined)	-0.0715
Cc1nnc(SCC(=O)NN2C(=O)NC3(CCCCC3)C2=O)s1	-0.0833

Structure (SMILES)	z-score
C=CCNC(=O)c1cc2c(=O)n3cc(C)ccc3nc2nc1NCC1CCCO1 (centres undefined)	0.535
CC(CNC(=O)C1CCCCC1)NC(=O)C1CCCCC1 (centres undefined)	-0.0103
CC(Oc1ccc(Cl)cc1Cl)C(=O)NCCCn1ccnc1 (centres undefined)	0.308
CCOC(=O)c1c[nH]c(=O)c(Br)c1O	-0.121
CCOC(=O)c1ccccc1NC(=O)CSc1nnc(Cc2cccn2C)n1-c1ccc(C)cc1	-1.53
Nc1nc(CSCCO)nc(Nc2ccc(F)cc2)n1	0.255
Cc1cc(C)n(CCC(=O)N/N=C/c2ccc(O)cc2)n1	-0.284
Cn1nnnc1SCc1ccccc1[N+](=O)[O-]	-0.65
CC1CCCCN1C(=O)CSc1nc(-c2ccccc2)cc(=O)[nH]1 (centres undefined)	-0.155
Cc1ccc2nc(C3CCCN(C(=S)Nc4cccc(C)c4C)C3)[nH]c2c1 (centres undefined)	0.0859
COc1ccc(C(C(=O)NC(C)(C)C)N(CC2CCCO2)C(=O)CCC(=O)Nc2cc(C)on2)cc1 (centres undefined)	-0.202
CC(=O)Nc1ccc2nc(N)sc2c1	0.197
COc1ccccc1NC(=O)CCN1CCCCCC1	-0.247
Cc1cc(C(=O)NNC(=S)NCC2CCCO2)cs1 (centres undefined)	0.555
CCOc1ccc(N2CC(C(=O)OCC(=O)NCc3ccccc3)CC2=O)cc1 (centres undefined)	-0.5
Brc1cccc(CN2CCCCCCC2)c1	0.167
CCN(CC)S(=O)(=O)c1ccc(OC)c(NC(=O)CSc2cc(Cl)ccc2Cl)c1	0.0224
COc1ccc(N(CC(=O)NCc2ccccc2)S(=O)(=O)c2c(C)noc2C)cc1	0.353
CC12CCC(c3c(C(=O)O)nn(-c4ccc(F)cc4)c31)C2(C)C (centres undefined)	-0.451
COc1ccc(C(=O)NC2CCN(C(=S)Nc3cccc(C)c3C)CC2)cc1	0.501
Cc1ccc(-c2nnc(SCC(=O)NNC(=O)COc3cccc4ccccc34)n2C)cc1	-0.0871
CCOc1ccc(-c2cc3nc(C4CCN(C(=O)OC(C)(C)C)CC4)c(C(=O)O)cn3n2)cc1	-0.472
